Data: PubChem BioAssay AID1508624 (National Center for Advancing Translational Sciences (NCATS), 2021)
About 120 (0.25%) of roughly 48,000 compounds were called active. Roughly 4% stayed inconclusive and do not appear here. The call rests on the fitted dose curve; in most records, active means well fitted activation curve with a large enough effect; inconclusive means small, poorly fitted or top-dose-only effect, or another doubt; inactive means no such curve, though single readings can be large or run the other way. Some of the results follow.

Assay: Primary qHTS for Identification of Small Molecule Activators of Huntingtin-Antisense Promoter Activity; further: nearly all actives have a fitted effect of over 55% in size
Conditions: HEK293 HTT-AS promoter firefly luciferase reporter, 24 h; series mostly up to 57.5 µM; activity change, positive = activation: at the top concentration
Procedure, shortened: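 Firefly luciferase signal from promoter-reporter HEK293 cells was scaled between vehicle (0%) and zero RLU (-100%). Compounds were tested at final concentrations of up to 57.5 uM over 24 h at 37 degrees C. PTC124 at 50 uM final served as control inhibitor.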

Activity change, positive = activation, inactive:
Cn1cc(S(=O)(=O)c2cccc(Cl)c2)c(=O)c2cc(F)c(N3CCN(c4ccccc4)CC3)cc21 -6.72%, Cc1ccc2c(=O)c(C(=O)c3cccc(Cl)c3)cn(CC(=O)Nc3ccc4c(c3)OCCO4)c2n1 -20.5%, CN1C(=O)Cc2cc(S(=O)(=O)CCC(=O)Nc3ccc(F)c(Cl)c3)ccc21 0.4%, CN(C)[C@@H]1C(=O)C(C(N)=O)=C(O)[C@@]2(O)C(=O)C3=C(O)c4c(O)ccc(Cl)c4[C@@H](O)[C@H]3C[C@@H]12 -6.03%, O=C(Nc1cc(F)ccc1F)N1CCC(CN2CCCC2)CC1 -3.99%, COc1ccc2c(c1)CCCC2=O 2.91%, COc1cc(C2c3c(-c4cc(C)ccc4O)n[nH]c3C(=O)N2CCCO)ccc1OCCC(C)C (stereo not drawn) -34.5%, CCc1ccccc1Nc1cc(C(=O)NC(C)c2ccccc2)c2ccccc2n1 (stereo not drawn) -14.2%, CCCc1nn2c(=O)cc(COC(=O)c3ccccc3NC(=O)c3ccc(Cl)cc3)nc2s1 -9.2%, CCOC(=O)c1ccccc1NC(=O)N1CCC(CN2CCCCC2)CC1 -6.43%, CCOc1ccc(NC(=O)CN2CCCN(Cc3cc(C)ccc3C)S2(=O)=O)cc1 -38.9%, Cc1ccc(NC(=O)C(C)Sc2nc(=O)cc(N)n2-c2ccccc2)cc1 (stereo not drawn) -6.21%, CCOC(=O)c1cccc(NC(=O)CCn2nc(C)c(S(=O)(=O)N3CCCCC3)c2C)c1 -29.1%, COc1ccc(S(=O)(=O)NCC(c2ccco2)N2CCOCC2)cc1C (stereo not drawn) -25.4%, COc1ccccc1N1CCN(S(=O)(=O)c2c(C)sc3ncn(CC(=O)Nc4ccccc4F)c(=O)c23)CC1 17.7%, COc1cccc(NC(=O)Cn2c(=O)n(-c3ccc(Cl)cc3)c(=O)c3sc4ccccc4c32)c1 -16.9%, O=C(Cn1c(=O)nc(-c2ccccc2)c2cc(Cl)ccc21)NCCc1ccc(Cl)cc1 -19.2%, CCc1ccc(NCc2cccn2-c2nnc(N3CCCCCC3)s2)cc1 -79.2%, CCN1CCN(c2ncc3c(n2)CCN(Cc2ccc(Br)s2)C3)CC1 -14.9%, CCc1ccc(-c2[nH]nc3nc(-c4ccc(OC)cc4)cc(C(=O)NCCc4ccc(OC)c(OC)c4)c23)cc1 -71.2%, CCOc1ccc(NC(=O)CSc2nnc(CNC(=O)c3c(F)cccc3Cl)o2)cc1 -8.82%, COc1ccc(NC(=O)Cn2c(=O)n(CCc3ccccc3)c(=O)c3ccccc32)cc1 9.4%, Cc1noc(-c2ccc(NCc3ccccc3)c([N+](=O)[O-])c2)n1 25.3%, COc1cccc(CNS(=O)(=O)c2cc3c(cc2C)n(C)c(=O)c(=O)n3C)c1 -0.57%, CCCCNC(=O)c1c(C)oc2ncn(CC(C)C)c(=O)c12 -26.5%, CCOc1ccc(NC(=O)Cn2nc(-c3ccncc3)ccc2=O)cc1 -6.32% [at 11.5 µM, percent change from vehicle, -100% = no light], O=C(c1cccc(Cl)c1)N1CCN(CCc2ccccn2)CC1 -12.2% [at 11.5 µM, percent change from vehicle, -100% = no light], O=C(NCc1nc2cccnc2n1Cc1ccc(F)cc1)c1ccccc1C(F)(F)F -24.9%, Cc1ccccc1OCC(=O)Nc1cc(-c2cccc(Br)c2)nn1-c1ccccc1 6.07%, Nc1c(-c2nc(-c3ccncc3)no2)nnn1CC(=O)Nc1ccccc1 -11.3%, COc1ccccc1CNCCSc1nnnn1C -8.38%, COc1ccc(C(=O)N(Cc2ccco2)Cc2ccco2)cc1 -1.5%, Cc1ccccc1CN1C(=O)c2ccccc2Sc2ccc(C(=O)NCc3cccs3)cc21 -19.7%, Cc1noc(/C=C/c2ccccc2F)c1S(=O)(=O)N1CCC(C(=O)N(C)Cc2ccco2)CC1 2.99%, CCC(=O)N1CCc2cc(Br)cc(S(=O)(=O)N3CCCC(C(=O)NCc4ccccc4)C3)c21 (stereo not drawn) -23.4%, COC(=O)c1c(N)n(-c2cc(Cl)cc(Cl)c2)c2nc3ccccc3nc12 -12.6%, CCCN1Cc2cccc(C(=O)Nc3cc(C)cc(C)c3)c2C1=O -6.77%, CC(=O)Nc1ccc(C)cc1-c1nc2ccccc2n(CC(=O)Nc2cc(Cl)ccc2C)c1=O -26.6%, COc1ccc(Cl)cc1NC(=O)CCC(=O)N1CCOc2ccccc21 -13.4%, O=C1c2cccc3c2[C@H](CCC3)CN1[C@@H]1CN2CCC1CC2 6.53%, COc1ccc(NC(=O)CSc2nc(-c3ccco3)cc(C(F)(F)F)n2)cc1 -25.5%, Cc1ccc2c(c1)N(C(=O)NCc1ccccc1)CCO2 -8.42%, CCC(C)NC(=O)c1ccc2c(=O)n3c(nc2c1)CCCCC3 (stereo not drawn) 21.7%, Cc1ccc(NC(=O)Cn2nnc3sc(-c4ccccc4)cc3c2=O)cc1Cl -3.31%, COc1ccc(C(=O)NCC2(N3CCN(C)CC3)CCCCC2)cc1 -8.69%, COC(=O)c1ccc(Cl)cc1NC(=O)N(Cc1ccc(C)o1)C1CCN(C(C)=O)CC1 -10.2%, CCC(CC)c1nn2c(=O)cc(COc3ccc(NC(=O)c4cccc(Cl)c4)cc3)nc2s1 -13.3%, COc1ccc(C)cc1NS(=O)(=O)c1ccc2c(c1)n(C)c(=O)n2C -9.44%, CCn1c(=O)c(=O)n(CC)c2cc(N3CCCCC3)c(NC(=O)c3cccc(F)c3)cc21 -8.77%, Cc1nnc2c(Nc3cccc(O)c3)nc3ccccc3n12 5.53%, Cc1ccc(Nc2nnc(-c3ccc(C)c(S(=O)(=O)N4CCOCC4)c3)c3ccccc23)c(C)c1 -34.1%, CCOc1ccc(C(=O)c2cn(Cc3ccc(Cl)cc3)c3cc(OC)c(OC)cc3c2=O)cc1 -36.3%, CCC(Cc1ccccc1)NC(=O)Cn1ncc2c3ccccc3n(Cc3ccccc3)c2c1=O (stereo not drawn) -27%, CCc1nc2nc(C)cc(Nc3ccc(OC)cc3OC)n2n1 -20.7%, Cc1oc(-c2ccc(Cl)cc2)nc1CN1CCC(C(=O)NCCCN2CCN(c3cccc(Cl)c3)CC2)CC1 -29.9%, CC(C)C1CCC(C(=O)N[C@H](Cc2ccccc2)C(=O)O)CC1 (stereo partly drawn), Cc1ccc2c(c1)NC(=O)C(CC(=O)Nc1ccccc1Cl)O2 (stereo not drawn) -11.4%, Cc1cc(C)n2nc(SCC(=O)Nc3ccccc3C)nc2n1 13.2%, Cc1ccc(Cl)cc1N1CCN(C(=O)c2cc(S(=O)(=O)N3CCCC3)cn2C)CC1 -28.7%, COc1ccc(CC(=O)NCC(c2ccc(N(C)C)cc2)N2CCOCC2)cc1 (stereo not drawn) -9.21%, CC(C)c1ccc(OC(=O)c2cc(-c3ccc(Cl)cc3)on2)cc1 -16.7%, Cc1cc(F)ccc1S(=O)(=O)Nc1ccc2c(c1)CCCN2C(=O)c1cccs1 -25.1%, COc1ccc(N2C(=O)C(CC(=O)Nc3ccc(F)cc3)N(Cc3ccc4c(c3)OCO4)C2=O)cc1 (stereo not drawn) 0.999%, COC(=O)c1cnc(NCc2ccc(F)cc2)c2ccccc12 -15%, CCN(CC)C(=O)Cn1c(=O)nc(-c2ccccc2F)c2cc(Cl)ccc21 0.395%, CCCNC(=O)N1[C@H](c2ccc(C)s2)[C@@H](C)C(=O)[C@@H](C)[C@@H]1c1ccc(C)s1 -11.4%, NC(=O)COCCN1CCN(C(c2ccccc2)c2ccc(Cl)cc2)CC1 (stereo not drawn) -10.7%, O=C1c2[nH]nc(-c3ccccc3O)c2C(c2ccccc2F)N1Cc1ccncc1 (stereo not drawn) 11.6%, CCOC(=O)Cc1ccc(NC(=O)NCc2cccn2Cc2ccccc2)cc1 -23.6%, COc1ccc(-n2c(=O)c3sc4ccccc4c3n(CC(=O)Nc3ccccc3F)c2=O)cc1 -7.59%, CCC(=O)N1CCc2cc(S(=O)(=O)CCC(=O)N3CCN(c4cc(C)ccc4C)CC3)ccc21 -5.36%, CCOc1ccc(NC(=O)c2c(NC(=O)Cc3ccccc3)sc3c2CCC(C)C3)cc1 (stereo not drawn) -28.3%, COc1ccc(OC)c(NC(=O)CN(C)S(=O)(=O)c2ccc3[nH]c4c(c3c2)CCCC4)c1 -28.6%, CCOc1ccc(C(=O)NCC(c2ccc3c(c2)OCO3)N2CCN(c3ccccc3F)CC2)cc1 (stereo not drawn) -28.7%, COc1ccc(Cn2nnc(C(=O)Nc3cc(OC)ccc3OC)c2N)cc1 -7.01%, COCCCNC(=O)C1CCN(Cc2nc(-c3ccc(OC)c(OC)c3)oc2C)CC1 -8.01%, Cc1ccc(NC(=O)Cn2c(=O)n(Cc3ccco3)c(=O)c3ccc(C(=O)NC4CCCC4)cc32)c(C)c1 -24.3%, CCn1c(=O)cc(SCC(=O)NCCc2cc(OC)ccc2OC)c2ccccc21 -13.6%, CCOc1ccc(NC(=O)c2c(NCc3ccc(C)o3)sc3c2CCC(C)C3)cc1 (stereo not drawn) -20.7%, COc1ccc(C)cc1Nc1nc2cc(Cl)c(Cl)cc2nc1-n1nc(C)cc1C -0.26%, COc1ccc(C)cc1NC(=O)CSc1nc(=O)n(Cc2ccncc2)c2c1CCC2 -36.3%, C=Cc1ccc(CN2C(=O)N(c3ccc(CC)cc3)S(=O)(=O)c3ccccc32)cc1 -30%, Cc1ccc(NC(=O)Cn2c(=O)n(-c3ccccc3)c(=O)c3c4c(sc32)CCCC4)cc1 -2.68%, COc1ccc(C)cc1NC(=O)NCc1ccc2c(c1)CCN2C(=O)c1ccccc1 -47.8%, COc1ccc(C(=O)NCCc2sc(-c3ccc(Cl)cc3)nc2C)c(OC)c1 -24.1%, Cc1ccc(C)c(CN2C(=O)c3ccccc3S(=O)(=O)c3ccc(C(=O)N4CCN(c5ccccn5)CC4)cc32)c1 -37.6%, COc1cc(NC(=O)CN2C(=O)COc3ccc(S(=O)(=O)N4CCCCC4)cc32)cc(OC)c1 -23%, CCc1cccc(N2C(=O)N(CC(=O)NCc3cccc(OC)c3OC)c3ccccc3S2(=O)=O)c1 -32%, CCCN1C(=O)C(Cc2nc3ccccc3c(=O)n2-c2ccccc2)c2cc(C)ccc21 (stereo not drawn) -26.4%, COC(=O)c1ccc(OCC2c3cc(OC)c(OC)cc3CCN2C(=O)C(C)C)cc1 (stereo not drawn) -27.7%, CCOC(=O)COc1ccc(C)cc1C(=O)c1ccn2nc(-c3ccc(C)cc3)cc2n1 -7.52%, O=C(CSc1ncc2c(n1)-c1ccccc1N(Cc1ccccc1)S2(=O)=O)Nc1ccccc1 12.5%, COCCNC(=O)c1ccc(CSc2nc3ccncc3n2Cc2ccccc2)cc1 8.87%
